Assay results reported in the RNAGym collection of RNA variant scans (doi:10.1101/gad.245936.114).
Variants at the background level are over-represented here.

B1: tRNA (parent)
chain: CUCUCGGUAGCCAAGUUGGUUUAAGGCGCAAGACUUUAAUUUAUCACUACGAAAUCUUGAGAUCGGGCGUUCGACUCGCCCCCGGGAGAUUUUUUCCUCGAGCAA

Variants of: B1
Assay: nonsense suppression (GFP-seq) (ratio to wild type); higher = more function; SUP4oc tRNA, yeast GFP reporter sort-seq
Procedure, shortened: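 Sorted GFP/RFP bins of yeast were each Illumina-sequenced with a phred ≥30 cutoff; the cells held a genome-integrated ochre-suppressor tRNA variant from a library with ~3% random mutations, a galactose-driven GFP ochre reporter, and RFP. Culture was in raffinose/galactose medium containing 80 mg/L adenine. Nonsense suppression, termed GFPSEQ, is the median GFP/RFP of the bins weighted by each variant's estimated cell share per bin, relative to the unmutated parent tRNA, for variants reaching ≥100 reads and ≥30 cells.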

Point of comparison: A13G U16G, nonsense suppression 0.207. Against it:
- C12U U58G A62G — lower, ≤ 0.026
- C12U U76G — lower, 0.0906
- A13C A23U — lower, ≤ 0.026
- A13C A23U A62G C82A — lower, ≤ 0.026
- A13C A23U C27G — lower, ≤ 0.026
- A13C A23U G67U C79G G88A — lower, ≤ 0.026
- A13C A30G — higher, 0.892
- A13C A30U G85A — lower, 0.157
- A13C A31U G59U — lower, ≤ 0.026
- A13C A33U U63C — lower, ≤ 0.026
- A13C A54U U57C G69C — lower, ≤ 0.026
- A13C A60G G78U — lower, ≤ 0.026
- A13C A62C C81A — lower, ≤ 0.026
- A13C A62G — lower, 0.0702
- A13C A87C — lower, 0.0539
- A13C A89C — lower, ≤ 0.026
- A13C C27A G84A G88U — lower, ≤ 0.026
- A13C C27G G69A G86U A89C — lower, ≤ 0.026
- A13C C27U A87C — lower, ≤ 0.026
- A13C C29G C75U — lower, ≤ 0.026
- A13C C29U — higher, 0.806
- A13C C34G C83A — lower, ≤ 0.026
- A13C C56G — lower, ≤ 0.026
- A13C C72U — higher, 0.23
- A13C C75G G88A — lower, ≤ 0.026
- A13C C75U G85U — higher, 0.333
- A13C C79G C80A — lower, ≤ 0.026
- A13C C81A A89G — lower, ≤ 0.026
- A13C C82A — lower, ≤ 0.026
- A13C G15C C29A U57A — lower, ≤ 0.026
- A13C G15C G18C — lower, ≤ 0.026
- A13C G18C G26A C27G A33C — lower, ≤ 0.026
- A13C G18C U20G A31U — lower, 0.134
- A13C G18C U35G U70C — lower, ≤ 0.026
- A13C G19U U21C U63A U70G — lower, ≤ 0.026
- A13C G19U U58A C77U — lower, ≤ 0.026
- A13C G26C U55C — lower, ≤ 0.026
- A13C G28C — higher, 0.794
- A13C G28U G32U — lower, ≤ 0.026
- A13C G28U U57A G86C — lower, ≤ 0.026
- A13C G32A C68G A89U — lower, ≤ 0.026
- A13C G59A — lower, ≤ 0.026
- A13C G59A G61U — lower, ≤ 0.026
- A13C G61A C75G — higher, 0.761
- A13C G61C G88A — lower, ≤ 0.026
- A13C G61U C68U — higher, 0.414
- A13C G66C A74G — lower, ≤ 0.026
- A13C G66U — lower, ≤ 0.026
- A13C G67A — lower, 0.0799
- A13C G67U C83G — lower, ≤ 0.026
- A13C G69U — lower, ≤ 0.026
- A13C G73A — higher, 0.394
- A13C G78A — higher, 0.208
- A13C G86U — lower, ≤ 0.026
- A13C G88U — lower, ≤ 0.026
- A13C U17C U22G G85A — higher, 0.81
- A13C U17G C29U A30C U76A — lower, ≤ 0.026
- A13C U17G C75A — higher, 1.1
- A13C U20G C27A A87U — lower, ≤ 0.026
- A13C U20G G59A G78A — lower, ≤ 0.026
- A13C U21A C34U A60U — lower, ≤ 0.026
- A13C U21C — higher, 1.17
- A13C U22G A74U — lower, ≤ 0.026
- A13C U55A U57C C68U — lower, ≤ 0.026
- A13C U55G C68U — lower, ≤ 0.026
- A13C U57A — lower, ≤ 0.026
- A13C U57A C72A C77G — lower, ≤ 0.026
- A13C U57A G66A — lower, ≤ 0.026
- A13C U57C G65A C75A G88C — lower, ≤ 0.026
- A13C U58C G73A C79U — lower, ≤ 0.026
- A13C U58G G66A A74U G86C — lower, ≤ 0.026
- A13C U63A — higher, 1.17
- A13C U63C — higher, 0.848
- A13C U70G — lower, ≤ 0.026
- A13C U76A — higher, 0.282
- A13G A14G A60G U70G — lower, ≤ 0.026
- A13G A23G U58A A74G — lower, ≤ 0.026
- A13G A24C U58A C68U C79G — lower, ≤ 0.026
- A13G A24G C27A A60G C81U — lower, ≤ 0.026
- A13G A24G U57A — lower, ≤ 0.026
- A13G A24U — lower, 0.0411
- A13G A24U G59C — lower, ≤ 0.026
- A13G A30G — lower, 0.105
- A13G A30U A31G A33U — lower, ≤ 0.026
- A13G A31G C34A G73C — lower, ≤ 0.026
- A13G A31G C72A — lower, ≤ 0.026
- A13G A31U A54U — lower, ≤ 0.026
- A13G A33U C77A — lower, ≤ 0.026
- A13G A33U U57A — lower, ≤ 0.026
- A13G A54C C64U G85C — lower, ≤ 0.026
- A13G A54C U63C — lower, ≤ 0.026
- A13G A62G — lower, ≤ 0.026
- A13G A62U C77U G86A — lower, ≤ 0.026
- A13G A74C C77U — lower, ≤ 0.026
- A13G A87G G88A — lower, ≤ 0.026
- A13G C27A C29G A33U U76C G86U — lower, ≤ 0.026
- A13G C27U A33C A89G — lower, ≤ 0.026
- A13G C27U G69U C80G G84U — lower, ≤ 0.026
- A13G C29A A31G A62U — lower, ≤ 0.026
- A13G C29A G86A — lower, ≤ 0.026
- A13G C29G — lower, ≤ 0.026
- A13G C34U — lower, ≤ 0.026
- A13G C34U G65C — lower, ≤ 0.026
- A13G C34U U35G C81G — lower, ≤ 0.026
- A13G C56G U57C G67A — lower, ≤ 0.026
- A13G C56U C82G — lower, ≤ 0.026
- A13G C64G — lower, ≤ 0.026
- A13G C64G G84A A87G — lower, ≤ 0.026
- A13G C77A — lower, ≤ 0.026
- A13G C80A — lower, ≤ 0.026
- A13G C83G — lower, ≤ 0.026
- A13G G15C C27A C82A — lower, ≤ 0.026
- A13G G15C U20A A33G — lower, ≤ 0.026
- A13G G15U U22G C72U — lower, ≤ 0.026
- A13G G19A G65A — lower, ≤ 0.026
- A13G G19A U58A U63G — lower, ≤ 0.026
- A13G G25A C34G G59U — lower, ≤ 0.026
- A13G G25C G61U U76C C81U — lower, ≤ 0.026
- A13G G25U G59C U70G G85C — lower, ≤ 0.026
- A13G G26U — lower, ≤ 0.026
- A13G G26U C77G — lower, ≤ 0.026
- A13G G26U G61U G65C — lower, ≤ 0.026
- A13G G32C G69C C72U — lower, ≤ 0.026
- A13G G32U — lower, ≤ 0.026
- A13G G61A G67C C82G — lower, ≤ 0.026
- A13G G61U G67C C83G — lower, ≤ 0.026
- A13G G66A A89U — lower, ≤ 0.026
- A13G G66U C72G — lower, ≤ 0.026
- A13G G67C — lower, ≤ 0.026
- A13G G84A — lower, ≤ 0.026
- A13G G86A — lower, ≤ 0.026
- A13G G86C A87U — lower, ≤ 0.026
- A13G U16G C56U — lower, ≤ 0.026
- A13G U16G U20A A24C C75U C81G — lower, ≤ 0.026
- A13G U17C A23C C75A G88A — lower, ≤ 0.026
- A13G U17C A30U — lower, ≤ 0.026
- A13G U17G A62U — lower, ≤ 0.026
- A13G U17G U71G — lower, ≤ 0.026
- A13G U20A G26C U70A — lower, ≤ 0.026
- A13G U20A U22C — lower, ≤ 0.026
- A13G U20A U55A G61C — lower, ≤ 0.026
- A13G U21C — higher, 0.211
- A13G U21G — lower, 0.026
- A13G U21G C83A — lower, ≤ 0.026
- A13G U22A A87C — lower, ≤ 0.026
- A13G U22A G65C G78A — lower, ≤ 0.026
- A13G U35C — lower, ≤ 0.026
- A13G U35G — lower, ≤ 0.026
- A13G U58A G59U — lower, ≤ 0.026
- A13G U58G — lower, ≤ 0.026
- A13U A14C G32U G61C — lower, ≤ 0.026
- A13U A14G C75A U76G G88C — lower, ≤ 0.026
- A13U A14U C27G A60C — lower, ≤ 0.026
- A13U A23G G61A — lower, ≤ 0.026
- A13U A23U G26C G28C — lower, ≤ 0.026
- A13U A24U G67C G85C G88U — lower, ≤ 0.026
- A13U A30G A31G C64G — lower, ≤ 0.026
- A13U A30G U71G A87C — lower, ≤ 0.026
- A13U A31G U71G — lower, ≤ 0.026
- A13U A33G — lower, 0.194
- A13U A54C G66A A74C G86A — lower, ≤ 0.026
- A13U A54C G86U — lower, ≤ 0.026
- A13U A54U — higher, 0.728
- A13U A74U — lower, 0.051
- A13U C27A — lower, ≤ 0.026
- A13U C27A C29A A60C — lower, ≤ 0.026
